# Results: the supplement of paper PMC8728848
# The other results are listed elsewhere or left out.
# B1: GS7807H-bfa-490-18-490 (Bacteroides fragilis) (protein)
# chain: GNLEEMNIDPDNATQTHPKLLLTQICMNAFKRGTDGMYATKKVIQADGESADQYYKWTRGSFGYYDNLRNVQKMGEEAERVNAPVYTALTKFFRAYYFYELTLRFGDIPYSQALKGEKEEIYTPEYDAQEDVFAGILQELREADEILANDASVIDGDIIYNGNSTQWRKLINSFRLKVLMTLSNHTTVGNINIASEFKNIATNSPLMNSLADNGQLVYLDQQGNRYPQFNAQWSGYYMDDTFIQRMRERRDPRLFIFSAQTNKGKTEGKPIDDFSSYEGGDPAAPYSDAIIKVSEGTISPINDRFRTDPIVEPTMLMGYAELQQILAEAVVRGWISGNAQTYYEKGIRASFSFYETHAKDYAGYLNENAVAQYLKEPLVDFTQASGTEEQIERIIMQKYLVTFYQGNWDSFYEQLRTGYPDFRRPAGTEIPKRWMYPQGEYDNNGTNVETAITRQFGAGNDKINQATWWQKKS
# Tests used:
# Test in all cases: glycan array binding signal (z-score within array); higher = stronger binding
# Conditions in all cases: glycan notation: IUPAC condensed, linker removed
# [1] = biological target: Gal(b1-3)GlcNAc(b1-3)Gal(b1-4)GlcNAc(b1-2)[Gal(b1-3)GlcNAc(b1-3)Gal(b1-4)GlcNAc(b1-6)]Man(a1-6)[Gal(b1-3)GlcNAc(b1-3)Gal(b1-4)GlcNAc(b1-2)Man(a1-3)]Man(b1-4)GlcNAc(b1-4)[Fuc(a1-6)]GlcNAc
# Outline: (§1)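 Arrays were curated from the Consortium for Functional Glycomics database, 3228 in total, and kept only where the protein sequence was available. Binding is expressed as a within-array Z-score. This score was averaged across arrays of the same protein sequence at different concentrations or buffers and across linkers, and negative values can be read as non-binding.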
# [2] = biological target: Gal(b1-3)GlcNAc(b1-3)Gal(b1-4)GlcNAc(b1-3)Gal(b1-4)GlcNAc(b1-2)[Gal(b1-3)GlcNAc(b1-3)Gal(b1-4)GlcNAc(b1-3)Gal(b1-4)GlcNAc(b1-6)]Man(a1-6)[Gal(b1-3)GlcNAc(b1-3)Gal(b1-4)GlcNAc(b1-3)Gal(b1-4)GlcNAc(b1-2)Man(a1-3)]Man(b1-4)GlcNAc(b1-4)[Fuc(a1-6)]GlcNAc
# Outline: as §1
# [3] = biological target: Gal(b1-3)GlcNAc(b1-3)Gal(b1-4)GlcNAc(b1-6)[Gal(b1-3)GlcNAc(b1-3)]Gal(b1-4)Glc
# Outline: as §1
# [4] = biological target: Gal(b1-3)GlcNAc(b1-3)Gal(b1-4)[Fuc(a1-3)]GlcNAc
# Outline: as §1
# [5] = biological target: Gal(b1-3)GlcNAc(b1-3)Gal(b1-4)[Fuc(a1-3)]GlcNAc(b1-6)[Gal(b1-3)GlcNAc(b1-3)]Gal(b1-4)Glc
# Outline: as §1
# [6] = biological target: Gal(b1-3)GlcNAc(b1-3)GalNAc
# Outline: as §1
# [7] = biological target: Gal(b1-3)GlcNAc(b1-6)Gal(b1-4)GlcNAc
# Outline: as §1
# [8] = biological target: Gal(b1-3)GlcNAc(b1-6)GalNAc
# Outline: as §1
# [9] = biological target: Gal(b1-3)GlcNAc(b1-6)[Gal(b1-3)]GalNAc
# Outline: as §1
# Gal(b1-3)GlcNAc6S = biological target: Gal(b1-3)GlcNAc6S
# Outline: as §1
# [10] = biological target: Gal(b1-3)[Fuc(a1-4)]GlcNAc
# Outline: as §1
# [11] = biological target: Gal(b1-3)[Fuc(a1-4)]GlcNAc(b1-2)Man
# Outline: as §1
# [12] = biological target: Gal(b1-3)[Fuc(a1-4)]GlcNAc(b1-2)Man(a1-3)[Gal(b1-3)[Fuc(a1-4)]GlcNAc(b1-2)Man(a1-6)]Man(b1-4)GlcNAc(b1-4)[Fuc(a1-6)]GlcNAc
# Outline: as §1
# [13] = biological target: Gal(b1-3)[Fuc(a1-4)]GlcNAc(b1-3)Gal(b1-3)[Fuc(a1-4)]GlcNAc
# Outline: as §1
# [14] = biological target: Gal(b1-3)[Fuc(a1-4)]GlcNAc(b1-3)Gal(b1-4)[Fuc(a1-3)]GlcNAc
# Outline: as §1
# [15] = biological target: Gal(b1-3)[Fuc(a1-4)]GlcNAc(b1-6)GalNAc
# Outline: as §1
# [16] = biological target: Gal(b1-3)[GlcNAc(b1-6)]GalNAc
# Outline: as §1
# [17] = biological target: Gal(b1-3)[Neu5Ac(a2-6)]GalNAc
# Outline: as §1
# [18] = biological target: Gal(b1-3)[Neu5Ac(a2-6)]GlcNAc(b1-4)Gal(b1-4)Glc
# Outline: as §1
# [19] = biological target: Gal(b1-3)[Neu5Ac(b2-6)]GalNAc
# Outline: as §1
# Gal(b1-4)Gal = biological target: Gal(b1-4)Gal
# Outline: as §1
# [20] = biological target: Gal(b1-4)GalNAc(a1-3)[Fuc(a1-2)]Gal(b1-4)GlcNAc
# Outline: as §1
# [21] = biological target: Gal(b1-4)GalNAc(b1-3)[Fuc(a1-2)]Gal(b1-4)GlcNAc
# Outline: as §1
# Gal(b1-4)Glc = biological target: Gal(b1-4)Glc
# Outline: as §1
# Gal(b1-4)Glc6S = biological target: Gal(b1-4)Glc6S
# Outline: as §1
# Gal(b1-4)GlcNAc = biological target: Gal(b1-4)GlcNAc
# Outline: as §1
# [22] = biological target: Gal(b1-4)GlcNAc(a1-6)Gal(b1-4)GlcNAc
# Outline: as §1
# Gal(b1-4)GlcNAc(b1-2)Man = biological target: Gal(b1-4)GlcNAc(b1-2)Man
# Outline: as §1
# [23] = biological target: Gal(b1-4)GlcNAc(b1-2)Man(a1-3)Man(b1-4)GlcNAc(b1-4)GlcNAc
# Outline: as §1
# [24] = biological target: Gal(b1-4)GlcNAc(b1-2)Man(a1-3)[Gal(b1-4)GlcNAc(b1-2)Man(a1-6)]Man(b1-4)GlcNAc(b1-4)GlcNAc
# Outline: as §1
# [25] = biological target: Gal(b1-4)GlcNAc(b1-2)Man(a1-3)[Gal(b1-4)GlcNAc(b1-2)Man(a1-6)]Man(b1-4)GlcNAc(b1-4)[Fuc(a1-6)]GlcNAc
# Outline: as §1
# [26] = biological target: Gal(b1-4)GlcNAc(b1-2)Man(a1-3)[Gal(b1-4)GlcNAc(b1-2)Man(a1-6)][Gal(b1-4)GlcNAc(b1-4)]Man(b1-4)GlcNAc(b1-4)[Fuc(a1-6)]GlcNAc
# Outline: as §1
# [27] = biological target: Gal(b1-4)GlcNAc(b1-2)Man(a1-3)[Gal(b1-4)GlcNAc(b1-2)Man(a1-6)][GlcNAc(b1-4)]Man(b1-4)GlcNAc(b1-4)[Fuc(a1-6)]GlcNAc
# Outline: as §1
# [28] = biological target: Gal(b1-4)GlcNAc(b1-2)Man(a1-3)[GlcNAc(b1-2)Man(a1-6)]Man(b1-4)GlcNAc(b1-4)GlcNAc
# Outline: as §1
# [29] = biological target: Gal(b1-4)GlcNAc(b1-2)Man(a1-3)[GlcNAc(b1-4)][Gal(b1-4)GlcNAc(b1-2)Man(a1-6)]Man(b1-4)GlcNAc(b1-4)GlcNAc
# Outline: as §1
# [30] = biological target: Gal(b1-4)GlcNAc(b1-2)Man(a1-3)[Man(a1-6)]Man(b1-4)GlcNAc(b1-4)GlcNAc
# Outline: as §1
# [31] = biological target: Gal(b1-4)GlcNAc(b1-2)Man(a1-6)Man(b1-4)GlcNAc(b1-4)GlcNAc
# Outline: as §1
# [32] = biological target: Gal(b1-4)GlcNAc(b1-2)Man(a1-6)[GlcNAc(b1-2)Man(a1-3)]Man(b1-4)GlcNAc(b1-4)GlcNAc
# Outline: as §1
binder,measurement,setting,value
B1,glycan array binding signal (z-score),[1],0.796
same,glycan array binding signal (z-score),[2],0.75
same,glycan array binding signal (z-score),[3],-0.003
same,glycan array binding signal (z-score),[4],0.374
same,glycan array binding signal (z-score),[5],0.745
same,glycan array binding signal (z-score),[6],-0.634
same,glycan array binding signal (z-score),[7],9.32
same,glycan array binding signal (z-score),[8],-0.482
same,glycan array binding signal (z-score),[9],0.913
same,glycan array binding signal (z-score),Gal(b1-3)GlcNAc6S,-1.09
same,glycan array binding signal (z-score),[10],-0.259
same,glycan array binding signal (z-score),[11],-0.359
same,glycan array binding signal (z-score),[12],1.45
same,glycan array binding signal (z-score),[13],-0.036
same,glycan array binding signal (z-score),[14],-0.365
same,glycan array binding signal (z-score),[15],-0.017
same,glycan array binding signal (z-score),[16],0.216
same,glycan array binding signal (z-score),[17],-0.328
same,glycan array binding signal (z-score),[18],-0.368
same,glycan array binding signal (z-score),[19],-0.813
same,glycan array binding signal (z-score),Gal(b1-4)Gal,-0.318
same,glycan array binding signal (z-score),[20],-0.448
same,glycan array binding signal (z-score),[21],-0.247
same,glycan array binding signal (z-score),Gal(b1-4)Glc,-0.6
same,glycan array binding signal (z-score),Gal(b1-4)Glc6S,-0.24
same,glycan array binding signal (z-score),Gal(b1-4)GlcNAc,0.14
same,glycan array binding signal (z-score),[22],-0.003
same,glycan array binding signal (z-score),Gal(b1-4)GlcNAc(b1-2)Man,-0.322
same,glycan array binding signal (z-score),[23],-0.197
same,glycan array binding signal (z-score),[24],-0.459
same,glycan array binding signal (z-score),[25],1.09
same,glycan array binding signal (z-score),[26],-1.01
same,glycan array binding signal (z-score),[27],-0.8
same,glycan array binding signal (z-score),[28],-0.5
same,glycan array binding signal (z-score),[29],0.096
same,glycan array binding signal (z-score),[30],-0.044
same,glycan array binding signal (z-score),[31],-0.435
same,glycan array binding signal (z-score),[32],-0.465
